# Assay results as given in PubChem BioAssay (NCI).
#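 Following 48 hours of exposure in 96-well plates, responses at five concentrations were used to interpolate endpoints linearly. GI50 marks 50% less growth.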 Certain results were filed several times, with different values. This is not the full list of results. The source may hold further records. For part of these data: The tests behind the records often covered other concentration ranges, which the source does not state; some values may only mark the edge of a range. For part of these data: The records of an entry are repeats in other runs, samples, wells, individuals or studies. What stands in brackets tells the records apart. Letters count within one entry.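 Definition used: TGI = concentration required for complete inhibition of growth.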
# What was measured:
# Test in all cases: NCI anticancer screen, dose series, 48 h
# DU-145 prostate = system: DU-145 prostate
# LOX IMVI melanoma = system: LOX IMVI melanoma
# HCT-116 colon = system: HCT-116 colon
# SF-295 CNS = system: SF-295 CNS
# U251 CNS = system: U251 CNS
# SK-MEL-2 melanoma = system: SK-MEL-2 melanoma
# NCI-H23 lung = system: NCI-H23 lung
# HCT-15 colon = system: HCT-15 colon
# SK-MEL-5 melanoma = system: SK-MEL-5 melanoma
# SF-539 CNS = system: SF-539 CNS
# COLO 205 colon = system: COLO 205 colon
# NCI/ADR-RES ovarian = system: NCI/ADR-RES ovarian
# NCI-H226 lung = system: NCI-H226 lung
# KM12 colon = system: KM12 colon
# HOP-92 NSCLC = system: HOP-92 NSCLC
# MALME-3M melanoma = system: MALME-3M melanoma
# SN12C renal = system: SN12C renal
# IGROV1 ovarian = system: IGROV1 ovarian
# DLD-1 colon = system: DLD-1 colon
# UACC-257 melanoma = system: UACC-257 melanoma
# M19-MEL melanoma = system: M19-MEL melanoma
# OVCAR-4 ovarian = system: OVCAR-4 ovarian
# UO-31 renal = system: UO-31 renal
# M14 melanoma = system: M14 melanoma
# SNB-75 CNS = system: SNB-75 CNS
# OVCAR-8 ovarian = system: OVCAR-8 ovarian
# SF-268 CNS = system: SF-268 CNS
# RXF 393 renal = system: RXF 393 renal
# UACC-62 melanoma = system: UACC-62 melanoma
# RPMI-8226 leukemia = system: RPMI-8226 leukemia
# SW-620 colon = system: SW-620 colon
# CAKI-1 renal = system: CAKI-1 renal
# CCRF-CEM leukemia = system: CCRF-CEM leukemia
# A549 NSCLC = system: A549 NSCLC
# SK-OV-3 ovarian = system: SK-OV-3 ovarian
# HOP-62 NSCLC = system: HOP-62 NSCLC
# SR leukemia = system: SR leukemia
# A498 renal = system: A498 renal
# EKVX NSCLC = system: EKVX NSCLC
# HL-60(TB) leukemia = system: HL-60(TB) leukemia
# PC-3 prostate = system: PC-3 prostate
# HS 578T breast = system: HS 578T breast
# OVCAR-5 ovarian = system: OVCAR-5 ovarian
# SK-MEL-28 melanoma = system: SK-MEL-28 melanoma
# K-562 leukemia = system: K-562 leukemia
# T-47D breast = system: T-47D breast
# NCI-H460 lung = system: NCI-H460 lung
# ACHN renal = system: ACHN renal
# MDA-MB-435 = system: MDA-MB-435
# HT29 colon = system: HT29 colon
# MCF7 breast = system: MCF7 breast
# BT-549 breast = system: BT-549 breast
smiles,measurement,setting,value
COc1ccc2[nH]c(-c3cccc(N(C)C)c3)cc(=O)c2c1,TGI,DU-145 prostate,3.03 µM and > 100 µM
same,TGI,LOX IMVI melanoma,3.14 µM and > 100 µM
same,TGI,HCT-116 colon,4.43 µM and > 100 µM
same,TGI,SF-295 CNS,988 nM and 59.8 µM
same,TGI,U251 CNS,2.31 µM and 24.6 µM
same,TGI,SK-MEL-2 melanoma,6.82 µM and > 100 µM
same,TGI,NCI-H23 lung,1.99 µM and > 100 µM
same,TGI,HCT-15 colon,1.5 µM and 58.7 µM
same,TGI,SK-MEL-5 melanoma,4.61 µM and > 100 µM
same,TGI,SF-539 CNS,361 nM and 7.45 µM
same,TGI,COLO 205 colon,464 nM and > 100 µM
same,TGI,NCI/ADR-RES ovarian,486 nM and > 100 µM
same,TGI,NCI-H226 lung,885 nM and > 100 µM
same,TGI,KM12 colon,9.65 µM and > 100 µM
same,TGI,HOP-92 NSCLC,2.87 µM and > 100 µM
O=C1C=CN(C2OC(CO)C(O)C2O)C(=O)C1 (configuration not stated),TGI,MALME-3M melanoma,55 µM [1 test] and 1.72 mM [mean of 8 tests]
same,TGI,SN12C renal,119 µM and > 2.12 mM
same,TGI,HOP-92 NSCLC,194 µM [1 test] and 2.1 mM [mean of 6 tests]
CC[C@@H](C)[C@H]([C@H](CC(=O)N1CCC[C@@H]1[C@@H](OC)[C@H](C)C(=O)N[C@H](Cc1ccccc1)c1nccs1)OC)N(C)C(=O)[C@H](NC(=O)[C@@H](C(C)C)N(C)C)C(C)C,TGI,IGROV1 ovarian,"6.31 nM, 4.25 µM, > 100 µM"
same,TGI,DLD-1 colon,8.65 nM and 1.59 µM
same,TGI,MALME-3M melanoma,4.25 µM [1 test] and > 71.6 µM [mean of 4 tests]
same,TGI,UACC-257 melanoma,4.25 µM [1 test] and > 100 µM [mean of 4 tests]
same,TGI,LOX IMVI melanoma,4.25 µM [1 test] and > 85.1 µM [mean of 3 tests]
same,TGI,M19-MEL melanoma,5.16 nM and 4.25 µM
same,TGI,SF-295 CNS,1.1 nM and 627 nM
same,TGI,OVCAR-4 ovarian,4.25 µM [1 test] and > 100 µM [mean of 4 tests]
same,TGI,UO-31 renal,9.36 nM and > 72.2 µM
same,TGI,M14 melanoma,2.76 nM and 473 nM
same,TGI,SK-MEL-2 melanoma,2.94 nM and 5.93 µM
same,TGI,SNB-75 CNS,"2.65 nM, 655 nM, > 100 µM"
same,TGI,OVCAR-8 ovarian,"4.6 nM, 85.2 nM, 893 nM"
same,TGI,SF-268 CNS,"9.41 nM, 54.7 nM, > 76.9 µM"
same,TGI,RXF 393 renal,3.72 nM and > 68.5 µM
same,TGI,UACC-62 melanoma,4.25 µM [1 test] and > 62.5 µM [mean of 3 tests]
same,TGI,RPMI-8226 leukemia,4.25 µM [1 test] and > 100 µM [mean of 2 tests]
same,TGI,SW-620 colon,4.25 µM [1 test] and > 100 µM [mean of 4 tests]
same,TGI,CAKI-1 renal,"117 nM [1 test] and 8.25 nM, 99.6 µM [mean of 4 tests]"
same,TGI,CCRF-CEM leukemia,"4.25 µM [1 test] and 2.59 nM, < 215 nM [mean of 3 tests]"
same,TGI,NCI-H226 lung,0.688 nM and 426 nM
same,TGI,A549 NSCLC,4.25 µM [1 test] and > 100 µM [mean of 3 tests]
same,TGI,SK-OV-3 ovarian,> 100 µM [mean of 2 tests] and 2.18 nM [mean of 4 tests]
same,TGI,HOP-62 NSCLC,4.21 nM and > 82.2 µM
same,TGI,KM12 colon,0.404 nM and 4.25 µM
same,TGI,HOP-92 NSCLC,"8.37 nM, 4.25 µM, > 93.4 µM"
same,TGI,SR leukemia,2.52 nM and > 4.64 µM
same,TGI,A498 renal,1.51 nM and 214 nM
same,GI50,EKVX NSCLC,0.425 nM [1 test] and 3.35 µM [mean of 4 tests]
same,TGI,EKVX NSCLC,"8.03 nM, 4.25 µM, > 100 µM"
same,TGI,HL-60(TB) leukemia,0.29 nM and 49.5 nM
CC(C)c1cc(CNc2nc(Nc3cc(C4CC4)[nH]n3)cc(N3CCN(C)CC3)n2)on1,GI50,PC-3 prostate,"4.97 µM [sample A, 1 test] and 174 nM [sample B, mean of 2 tests]"
same,GI50,HS 578T breast,"3.04 µM [sample A, 1 test] and 99.4 nM [sample B, mean of 2 tests]"
same,TGI,HS 578T breast,"> 10 µM [sample A, 1 test] and 469 nM [sample B, mean of 2 tests]"
same,GI50,OVCAR-5 ovarian,"756 nM [sample A, 1 test] and 30.1 nM [sample B, mean of 2 tests]"
same,GI50,SK-MEL-28 melanoma,"> 10 µM [sample A, 1 test] and 367 nM [sample B, mean of 2 tests]"
same,TGI,DU-145 prostate,"> 10 µM [sample A, 1 test] and 657 nM [sample B, mean of 2 tests]"
same,GI50,K-562 leukemia,"3.58 µM [sample A, 1 test] and < 16.6 nM [sample B, mean of 2 tests]"
same,GI50,T-47D breast,"> 10 µM [sample A, 1 test] and 625 nM [sample B, mean of 2 tests]"
same,GI50,UACC-257 melanoma,"8.71 µM [sample A, 1 test] and 190 nM [sample B, mean of 2 tests]"
same,GI50,LOX IMVI melanoma,"653 nM [sample A, 1 test] and 35.2 nM [sample B, mean of 2 tests]"
same,TGI,LOX IMVI melanoma,"3.43 µM [sample A, 1 test] and 200 nM [sample B, mean of 2 tests]"
same,GI50,HCT-116 colon,"1.95 µM [sample A, 1 test] and 44 nM [sample B, 1 test]"
same,GI50,SF-295 CNS,"2.42 µM [sample A, 1 test] and < 50.1 nM [sample B, mean of 2 tests]"
same,GI50,NCI-H460 lung,"2.91 µM [sample A, 1 test] and < 12.3 nM [sample B, mean of 2 tests]"
same,GI50,M14 melanoma,"2.14 µM [sample A, 1 test] and 150 nM [sample B, mean of 2 tests]"
same,GI50,SNB-75 CNS,"1.35 µM [sample A, 1 test] and 38.2 nM [sample B, mean of 2 tests]"
same,TGI,SNB-75 CNS,"5.44 µM [sample A, 1 test] and 245 nM [sample B, mean of 2 tests]"
same,GI50,ACHN renal,"2.83 µM [sample A, 1 test] and 259 nM [sample B, mean of 2 tests]"
same,GI50,SN12C renal,"2.21 µM [sample A, 1 test] and 216 nM [sample B, mean of 2 tests]"
same,GI50,RXF 393 renal,"669 nM [sample A, 1 test] and 27.1 nM [sample B, 1 test]"
same,TGI,RXF 393 renal,"4.36 µM [sample A, 1 test] and 198 nM [sample B, 1 test]"
same,GI50,MDA-MB-435,"4.49 µM [sample A, 1 test] and 425 nM [sample B, mean of 2 tests]"
same,GI50,HCT-15 colon,"> 10 µM [sample A, 1 test] and 869 nM [sample B, mean of 2 tests]"
same,GI50,UACC-62 melanoma,"3.49 µM [sample A, 1 test] and 127 nM [sample B, mean of 2 tests]"
same,GI50,SF-539 CNS,"2.2 µM [sample A, 1 test] and 114 nM [sample B, mean of 2 tests]"
same,GI50,SW-620 colon,"2.27 µM [sample A, 1 test] and 28.7 nM [sample B, mean of 2 tests]"
same,GI50,COLO 205 colon,"344 nM [sample A, 1 test] and 16.9 nM [sample B, mean of 2 tests]"
same,TGI,COLO 205 colon,"1.8 µM [sample A, 1 test] and 87.8 nM [sample B, mean of 2 tests]"
same,GI50,HT29 colon,"352 nM [sample A, 1 test] and 31.4 nM [sample B, 1 test]"
same,TGI,HT29 colon,"> 10 µM [sample A, 1 test] and 244 nM [sample B, 1 test]"
same,GI50,MCF7 breast,"464 nM [sample A, 1 test] and < 10.5 nM [sample B, mean of 2 tests]"
same,GI50,BT-549 breast,"4 µM [sample A, 1 test] and 152 nM [sample B, mean of 2 tests]"
same,GI50,A549 NSCLC,"1.41 µM [sample A, 1 test] and 85.3 nM [sample B, mean of 2 tests]"
same,GI50,HOP-62 NSCLC,"2.02 µM [sample A, 1 test] and 49.1 nM [sample B, mean of 2 tests]"
same,TGI,HOP-62 NSCLC,"> 10 µM [sample A, 1 test] and 509 nM [sample B, mean of 2 tests]"
same,GI50,KM12 colon,"2.76 µM [sample A, 1 test] and < 10 nM [sample B, 1 test]"
same,GI50,A498 renal,"711 nM [sample A, 1 test] and 10.3 nM [sample B, mean of 2 tests]"
same,TGI,A498 renal,"2.63 µM [sample A, 1 test] and 122 nM [sample B, mean of 2 tests]"
